The test has as its target CD33 Db-FM (fluorescein-maleimide-labelled anti-CD33 diabody, clone SGN-33) (fluorescein-5-maleimide on the engineered C-terminal cysteine (added after the hexahistidine tag)). Description: FACS; apparent Kd, on MOLM14-CD117high cells. On the technique in general: A flow cytometer gives signals particle by particle.

B1: CD33 on human AML cells (Kasumi-1, HL-60, MOLM14) (receptor)
chain: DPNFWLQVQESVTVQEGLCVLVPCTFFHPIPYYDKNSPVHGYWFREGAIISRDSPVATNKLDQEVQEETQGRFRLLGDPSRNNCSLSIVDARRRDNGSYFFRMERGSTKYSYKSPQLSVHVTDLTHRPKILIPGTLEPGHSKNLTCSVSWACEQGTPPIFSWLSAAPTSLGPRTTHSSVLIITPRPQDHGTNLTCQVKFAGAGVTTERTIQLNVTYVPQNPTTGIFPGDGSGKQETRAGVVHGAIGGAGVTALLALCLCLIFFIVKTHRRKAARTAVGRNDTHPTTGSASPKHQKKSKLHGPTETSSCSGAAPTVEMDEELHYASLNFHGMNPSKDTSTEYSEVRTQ
Take B1: the Kd worked out at 0.44 nM.

Values taken from PMC11588662 (2024).
